# Source: PubChem BioAssay AID504333 (National Center for Advancing Translational Sciences (NCATS), 2011)
# In all, about 360,000 compounds went through this assay and about 16,000 (4.4%) were called active. The shares of active, inactive and inconclusive entries below differ from those in the screen. The call rests on the fitted dose curve; in most records, active means well fitted inhibition curve with a large enough effect; inconclusive means small, poorly fitted or top-dose-only effect; inactive means no such curve, though single readings can be large or run the other way. Where the call is inconclusive, the potency comes from a doubtful curve fit.
# Biological target: Bromodomain adjacent to zinc finger domain protein 2B (Homo sapiens) (UniProt Q9UIF8)
# Experiment: qHTS Assay for Inhibitors of BAZ2B; further: nearly all actives have a fitted effect of over 60% in size
# Settings: AlphaScreen BAZ2B-H3K14Ac peptide displacement; series mostly up to 114 µM
# How it was run: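 AlphaScreen displacement: compounds (up to 110uM) incubated 30 min at room temperature with a preformed 50 nM BAZ2B/50 nM biotinylated H3K14Ac peptide complex in PBS pH 7.4 with Tween-20. Donor and acceptor beads at 10 ug/mL final added, 20 min light-protected before reading.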
# Potency means the concentration at half of the fitted maximal effect; tags describe the fitted curve by direction and shape.
# Sequence of UniProt Q9UIF8 (Q9UIF8 whole entry, looked up, the tested form may be a part): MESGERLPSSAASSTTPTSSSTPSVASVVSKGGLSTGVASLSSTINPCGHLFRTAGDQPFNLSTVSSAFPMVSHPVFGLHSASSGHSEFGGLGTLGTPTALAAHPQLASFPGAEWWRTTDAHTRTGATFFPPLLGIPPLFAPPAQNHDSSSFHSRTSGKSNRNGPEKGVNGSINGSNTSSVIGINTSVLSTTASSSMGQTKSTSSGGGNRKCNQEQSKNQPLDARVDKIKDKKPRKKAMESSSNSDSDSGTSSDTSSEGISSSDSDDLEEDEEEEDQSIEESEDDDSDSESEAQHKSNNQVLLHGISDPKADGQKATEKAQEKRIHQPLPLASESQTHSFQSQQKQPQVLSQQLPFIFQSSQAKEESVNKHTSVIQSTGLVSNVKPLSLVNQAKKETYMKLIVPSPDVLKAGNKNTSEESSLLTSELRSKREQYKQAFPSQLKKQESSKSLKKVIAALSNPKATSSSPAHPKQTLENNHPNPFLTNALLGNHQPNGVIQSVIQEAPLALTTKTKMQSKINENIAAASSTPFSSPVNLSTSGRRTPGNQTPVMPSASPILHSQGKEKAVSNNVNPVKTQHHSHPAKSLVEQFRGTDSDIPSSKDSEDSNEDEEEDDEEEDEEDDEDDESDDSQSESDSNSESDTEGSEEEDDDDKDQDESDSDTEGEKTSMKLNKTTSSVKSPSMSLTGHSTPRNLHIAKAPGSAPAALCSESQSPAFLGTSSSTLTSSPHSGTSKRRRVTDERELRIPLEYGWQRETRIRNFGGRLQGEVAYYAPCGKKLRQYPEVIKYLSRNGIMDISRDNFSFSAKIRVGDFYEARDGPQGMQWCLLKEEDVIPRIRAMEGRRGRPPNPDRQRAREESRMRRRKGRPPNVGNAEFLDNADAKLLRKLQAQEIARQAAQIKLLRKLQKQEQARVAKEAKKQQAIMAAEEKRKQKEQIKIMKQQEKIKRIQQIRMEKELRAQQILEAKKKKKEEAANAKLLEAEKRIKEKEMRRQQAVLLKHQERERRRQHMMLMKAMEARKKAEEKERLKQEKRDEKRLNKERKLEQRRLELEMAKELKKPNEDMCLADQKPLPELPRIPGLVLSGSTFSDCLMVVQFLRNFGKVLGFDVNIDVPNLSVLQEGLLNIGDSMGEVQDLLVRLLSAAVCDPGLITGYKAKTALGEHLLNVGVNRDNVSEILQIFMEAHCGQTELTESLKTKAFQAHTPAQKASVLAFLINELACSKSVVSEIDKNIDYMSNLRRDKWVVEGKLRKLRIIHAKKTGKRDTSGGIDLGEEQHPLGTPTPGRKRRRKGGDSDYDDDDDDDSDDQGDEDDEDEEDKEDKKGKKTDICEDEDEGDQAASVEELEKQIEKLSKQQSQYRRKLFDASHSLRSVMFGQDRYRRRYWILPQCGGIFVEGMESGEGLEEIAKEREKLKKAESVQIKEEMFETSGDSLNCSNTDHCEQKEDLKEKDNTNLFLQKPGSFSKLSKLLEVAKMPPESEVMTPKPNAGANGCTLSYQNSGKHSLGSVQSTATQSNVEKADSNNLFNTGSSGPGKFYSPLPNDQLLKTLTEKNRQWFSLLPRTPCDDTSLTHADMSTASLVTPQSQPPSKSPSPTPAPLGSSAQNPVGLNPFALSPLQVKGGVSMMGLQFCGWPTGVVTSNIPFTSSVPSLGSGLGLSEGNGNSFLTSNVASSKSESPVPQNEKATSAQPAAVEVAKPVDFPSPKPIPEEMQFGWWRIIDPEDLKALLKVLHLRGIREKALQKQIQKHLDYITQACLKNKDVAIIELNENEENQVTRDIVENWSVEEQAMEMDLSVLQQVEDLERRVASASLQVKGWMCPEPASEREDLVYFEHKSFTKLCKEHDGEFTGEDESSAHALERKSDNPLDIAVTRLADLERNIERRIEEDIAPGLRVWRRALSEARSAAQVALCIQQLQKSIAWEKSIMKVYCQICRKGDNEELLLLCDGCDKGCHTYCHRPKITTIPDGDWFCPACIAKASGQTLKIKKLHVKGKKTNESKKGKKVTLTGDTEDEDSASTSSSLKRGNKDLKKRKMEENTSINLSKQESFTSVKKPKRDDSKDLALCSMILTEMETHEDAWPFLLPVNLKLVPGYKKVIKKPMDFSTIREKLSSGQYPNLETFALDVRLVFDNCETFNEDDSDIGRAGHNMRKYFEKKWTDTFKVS
row,Compound,Potency
1,CC(C)Oc1cc(N)c(Cl)cc1Cl,inactive
2,CCOc1ccccc1N1C(=O)CC(Sc2ncccc2C(=O)O)C1=O (stereo not given),inactive
3,CCCn1c(SCC(=O)NCCc2ccccc2)nnc1-c1ccccn1,"inconclusive: 89.1 µM [inhibitor, single point]"
4,Cc1cccc(NC(=S)N/C(=N/S(=O)(=O)c2ccccc2)c2ccccc2)c1,inactive
5,COc1ccc(C(=O)C2CCCN(C/C=C/c3ccccc3OC)C2)c(OC)c1 (stereo not given),"inconclusive: 79.4 µM [inhibitor, single point]"
6,c1ccc2c(c1)nc1n2C2(N3CCOCC3)CCCC2C1N1CCOCC1 (stereo not given),inactive
7,COc1ccc(Cn2c(=O)[nH]c3cc(C(=O)N4CCN(c5cccc(OC)c5)CC4)ccc3c2=O)cc1,inactive
8,Cc1ccc(NS(=O)(=O)c2cc([N+](=O)[O-])ccc2NNC(=S)Nc2cccc(Cl)c2)c(C)c1,active: 20 µM
9,COc1cc(NS(=O)(=O)c2ccc(N/C=C(\C=O)c3nc4cc(Cl)ccc4o3)cc2)nc(OC)n1,"inconclusive: 50.1 µM [inhibitor, partial curve]"
10,O=C(CCCCCCCC(=O)NNC(=O)Nc1ccccc1)NNC(=O)Nc1ccccc1,active: 79.4 µM
11,CCOC(=O)C(=CNNc1ccccc1)C(=O)OCC,"inconclusive: 50.1 µM [inhibitor, partial curve]"
12,O=C(COc1ccc2ccc(=O)oc2c1)NCCCn1ccnc1,"inconclusive: 79.4 µM [inhibitor, single point]"
13,Cc1cc(-c2n[nH]c(=S)n2/N=C/C=C/c2ccco2)n[nH]1,active: 50.1 µM
14,O=C(Nc1ccccc1Cl)N1CCn2c(nc3ccccc32)C1,"inconclusive: 12.6 µM [inhibitor, single point]"
15,O=C(O)c1ccc(NC(=S)NC(=O)c2cncc(Br)c2)cc1,"inconclusive: 3.55 µM [inhibitor, full curve, poor fit]"
16,Cc1ccc(SCC(=O)NCCc2ccccc2)cc1,"inconclusive: 89.1 µM [inhibitor, single point]"
17,O=C(Nc1cccc(O)c1)c1cc(S(=O)(=O)N2CCCC2)ccc1Cl,inactive
18,CC(=O)N1CCCC(C(=O)c2ccc3c4c(cccc24)CC3)C1 (stereo not given),"inconclusive: 89.1 µM [inhibitor, single point]"
19,O=C(CN1C(=O)C2CCCCC2C1=O)Nc1nc(-c2ccccn2)cs1 (stereo not given),active: 35.5 µM
20,Cc1ccc(Cn2ccc(O)c(Cc3ccccc3)c2=O)cc1,"inconclusive: 89.1 µM [inhibitor, partial curve]"
21,NC(=O)Cn1c(=O)n(Cc2ccco2)c(=O)c2c3c(sc21)CCCCC3,"inconclusive: 35.5 µM [inhibitor, single point]"
22,Cn1cccc1/C=C1\SC(=Nc2ccccc2)NC1=O,"inconclusive: 79.4 µM [inhibitor, single point]"
23,Cc1ccc(N(C(=O)CNC(=O)c2ccco2)C(C(=O)NC2CCCCC2)c2cccnc2)cc1 (stereo not given),inactive

row,Compound,Potency
1,CCSC(=Nc1ccccc1)C1=C(O)COC1=O,"inconclusive: 89.1 µM [inhibitor, single point]"
2,Cc1ccc(NC(=O)Cn2c(CCC(=O)O)ccc2-c2ccc(Cl)cc2)cc1,"inconclusive: 50.1 µM [inhibitor, partial curve]"
3,Cc1ccc(N=Cc2cc(Cc3ccccc3Cl)cc([N+](=O)[O-])c2O)c(O)c1,active: 25.1 µM
4,COc1cccc(/C=C/C(=O)c2ccc(NC3=NCCCS3)cc2)c1,"inconclusive: 28.2 µM [inhibitor, full curve]"
5,CCN(Cc1ccccc1)C(=O)/C=C/c1ccccc1[N+](=O)[O-],active: 89.1 µM
6,CC1(c2ccc(OC(F)F)cc2)NC(=O)N(CC(=O)N2CCN(C(=O)c3ccco3)CC2)C1=O (stereo not given),"inconclusive: 89.1 µM [inhibitor, single point]"
7,Cc1cccn2c(=O)c3cc(C(=O)NCCc4ccccc4)c(=N)n(CCCn4ccnc4)c3nc12,"inconclusive: 50.1 µM [inhibitor, partial curve]"
8,C=CCNc1nc(C(=O)OCC(=O)c2ccc(F)cc2)cs1,"inconclusive: 56.2 µM [inhibitor, partial curve]"
9,O=C(CN1CCN(S(=O)(=O)c2ccccc2)CC1)NC(=O)NCc1ccco1,"inconclusive: 50.1 µM [inhibitor, partial curve]"
10,Cc1ccccc1-c1cnn(-c2cccc([N+](=O)[O-])c2)c1N,"inconclusive: 70.8 µM [inhibitor, partial curve]"
11,CNC(=O)CSc1nnc(-c2ccco2)n1-c1cc(C)ccc1C,"inconclusive: 89.1 µM [inhibitor, single point]"
12,COc1ccc(N=Nc2ccc3ccccc3c2)c(O)c1,active: 5.62 µM
13,COC(=O)c1sccc1NC(=O)Nc1cc(OC)ccc1OC,"inconclusive: 39.8 µM [inhibitor, partial curve]"
14,CCc1ccc(CNc2ccc3c(c2)ncn3C)cc1,active: 44.7 µM
15,Nc1ncccc1OCc1cccc(C(F)(F)F)c1,"inconclusive: 79.4 µM [inhibitor, single point]"
16,CCc1cccc(C)c1NC(=O)c1cccnc1,"inconclusive: 89.1 µM [inhibitor, single point]"
17,CCC1(c2cccc(Cl)c2)NC(=O)N(Cc2cc(C(=O)OC)c(C)o2)C1=O (stereo not given),"inconclusive: 50.1 µM [inhibitor, partial curve]"
18,COc1ccc(NC(=O)C2=CC(c3ccc(OC)c(OC)c3)=NS(=O)(=O)N2C)cc1,"inconclusive: 39.8 µM [inhibitor, full curve, poor fit]"
19,COc1ccc(-c2cnc(SCCNC(=O)c3ccc4c(c3)OCO4)[nH]2)cc1,"inconclusive: 79.4 µM [inhibitor, single point]"
20,CC(C)CCn1c(S(=O)(=O)O)nc2ccccc21,"inconclusive: 89.1 µM [inhibitor, single point]"
21,Cc1ccc(NC(=O)CCNCc2ccco2)cc1S(=O)(=O)N(C)C,active: 50.1 µM
22,COc1cc(CNCCN2CCOCC2)ccc1OCc1ccccc1Cl,inactive
